Measurements published in publication PMC9911399, “Two distinct binding modes provide the RNA-binding protein RbFox with extraordinary sequence specificity”.
Numbering of substitutions follows the chain as printed; changes in the protein carry UniProt numbers. The list shows a part of the results.

T1: RBFOX1 RRM (Homo sapiens, UniProt Q9NWB1 109-208)
T1 sequence: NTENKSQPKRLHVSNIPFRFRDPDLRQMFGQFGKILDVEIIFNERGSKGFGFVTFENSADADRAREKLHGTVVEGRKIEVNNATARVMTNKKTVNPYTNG

B1: UCAAACU (DNA:RNA)
RNA: GGGAGACCGGAAUUCAGAUUGUCCUCAAACUUUAAAUCCCGUCGUAGCCACCA
DNA 1: CAATCTGAATTCCGGTCTCCC
DNA 2: TGGTGGCTACGACGGGATT
B2: GAUUACA (DNA:RNA)
RNA: B1 RNA with U25G, C26A, A27U, A28U, U31A
DNA 1: CAATCTGAATTCCGGTCTCCC
DNA 2: TGGTGGCTACGACGGGATT
B3: UUAAAAC (DNA:RNA)
RNA: B1 RNA with C26U, C30A, U31C
DNA 1: CAATCTGAATTCCGGTCTCCC
DNA 2: TGGTGGCTACGACGGGATT
B4: CCAGUAG (DNA:RNA)
RNA: B1 RNA with U25C, A28G, A29U, C30A, U31G
DNA 1: CAATCTGAATTCCGGTCTCCC
DNA 2: TGGTGGCTACGACGGGATT
B5: AAGGUAA (DNA:RNA)
RNA: GGGAGACCGGAAUUCAGAUUGUCCAAGGUAAUUAAAUCCCGUCGUAGCCACCA
DNA 1: CAATCTGAATTCCGGTCTCCC
DNA 2: TGGTGGCTACGACGGGATT
B6: AUUAUAA (DNA:RNA)
RNA: B5 RNA with A26U, G27U, G28A
DNA 1: CAATCTGAATTCCGGTCTCCC
DNA 2: TGGTGGCTACGACGGGATT
B7: UUAGCAU (DNA:RNA)
RNA: B1 RNA with C26U, A28G, A29C, C30A
DNA 1: CAATCTGAATTCCGGTCTCCC
DNA 2: TGGTGGCTACGACGGGATT
B8: GCACUUG (DNA:RNA)
RNA: B1 RNA with U25G, A28C, A29U, C30U, U31G
DNA 1: CAATCTGAATTCCGGTCTCCC
DNA 2: TGGTGGCTACGACGGGATT
B9: CAGUGCA (DNA:RNA)
RNA: B5 RNA with A25C, G28U, U29G, A30C
DNA 1: CAATCTGAATTCCGGTCTCCC
DNA 2: TGGTGGCTACGACGGGATT
B10: GGUAUAA (DNA:RNA)
RNA: B5 RNA with A25G, A26G, G27U, G28A
DNA 1: CAATCTGAATTCCGGTCTCCC
DNA 2: TGGTGGCTACGACGGGATT
B11: UCCCGCA (DNA:RNA)
RNA: B1 RNA with A27C, A28C, A29G, U31A
DNA 1: CAATCTGAATTCCGGTCTCCC
DNA 2: TGGTGGCTACGACGGGATT
B12: CCCACAG (DNA:RNA)
RNA: B1 RNA with U25C, A27C, A29C, C30A, U31G
DNA 1: CAATCTGAATTCCGGTCTCCC
DNA 2: TGGTGGCTACGACGGGATT
B13: CCGACUG (DNA:RNA)
RNA: B1 RNA with U25C, A27G, A29C, C30U, U31G
DNA 1: CAATCTGAATTCCGGTCTCCC
DNA 2: TGGTGGCTACGACGGGATT
B14: CUAGCAC (DNA:RNA)
RNA: B5 RNA with A25C, A26U, G27A, U29C, A31C
DNA 1: CAATCTGAATTCCGGTCTCCC
DNA 2: TGGTGGCTACGACGGGATT
B15: GCCGGUG (DNA:RNA)
RNA: B5 RNA with A25G, A26C, G27C, U29G, A30U, A31G
DNA 1: CAATCTGAATTCCGGTCTCCC
DNA 2: TGGTGGCTACGACGGGATT
B16: GGCGACC (DNA:RNA)
RNA: B1 RNA with U25G, C26G, A27C, A28G, U31C
DNA 1: CAATCTGAATTCCGGTCTCCC
DNA 2: TGGTGGCTACGACGGGATT
B17: CAGUGCG (DNA:RNA)
RNA: B5 RNA with A25C, G28U, U29G, A30C, A31G
DNA 1: CAATCTGAATTCCGGTCTCCC
DNA 2: TGGTGGCTACGACGGGATT
B18: CUUUUCA (DNA:RNA)
RNA: B5 RNA with A25C, A26U, G27U, G28U, A30C
DNA 1: CAATCTGAATTCCGGTCTCCC
DNA 2: TGGTGGCTACGACGGGATT
B19: UAUGCCA (DNA:RNA)
RNA: B5 RNA with A25U, G27U, U29C, A30C
DNA 1: CAATCTGAATTCCGGTCTCCC
DNA 2: TGGTGGCTACGACGGGATT
B20: CAACAUC (DNA:RNA)
RNA: B1 RNA with U25C, C26A, A28C, C30U, U31C
DNA 1: CAATCTGAATTCCGGTCTCCC
DNA 2: TGGTGGCTACGACGGGATT
B21: GAAACAA (DNA:RNA)
RNA: B5 RNA with A25G, G27A, G28A, U29C
DNA 1: CAATCTGAATTCCGGTCTCCC
DNA 2: TGGTGGCTACGACGGGATT
B22: UAACAGA (DNA:RNA)
RNA: B1 RNA with C26A, A28C, C30G, U31A
DNA 1: CAATCTGAATTCCGGTCTCCC
DNA 2: TGGTGGCTACGACGGGATT
B23: UAUAAAA (DNA:RNA)
RNA: B5 RNA with A25U, G27U, G28A, U29A
DNA 1: CAATCTGAATTCCGGTCTCCC
DNA 2: TGGTGGCTACGACGGGATT
B24: CAAGUAA (DNA:RNA)
RNA: B5 RNA with A25C, G27A
DNA 1: CAATCTGAATTCCGGTCTCCC
DNA 2: TGGTGGCTACGACGGGATT
B25: AGAUUAC (DNA:RNA)
RNA: B5 RNA with A26G, G27A, G28U, A31C
DNA 1: CAATCTGAATTCCGGTCTCCC
DNA 2: TGGTGGCTACGACGGGATT
B26: UCCAUCU (DNA:RNA)
RNA: B1 RNA with A27C, A29U
DNA 1: CAATCTGAATTCCGGTCTCCC
DNA 2: TGGTGGCTACGACGGGATT
B27: CCUGGGG (DNA:RNA)
RNA: B5 RNA with A25C, A26C, G27U, U29G, A30G, A31G
DNA 1: CAATCTGAATTCCGGTCTCCC
DNA 2: TGGTGGCTACGACGGGATT
B28: CUGUGUA (DNA:RNA)
RNA: B5 RNA with A25C, A26U, G28U, U29G, A30U
DNA 1: CAATCTGAATTCCGGTCTCCC
DNA 2: TGGTGGCTACGACGGGATT
B29: GUAACAA (DNA:RNA)
RNA: B5 RNA with A25G, A26U, G27A, G28A, U29C
DNA 1: CAATCTGAATTCCGGTCTCCC
DNA 2: TGGTGGCTACGACGGGATT
B30: AGUGUGC (DNA:RNA)
RNA: B5 RNA with A26G, G27U, A30G, A31C
DNA 1: CAATCTGAATTCCGGTCTCCC
DNA 2: TGGTGGCTACGACGGGATT
B31: UGCCGUG (DNA:RNA)
RNA: B1 RNA with C26G, A27C, A28C, A29G, C30U, U31G
DNA 1: CAATCTGAATTCCGGTCTCCC
DNA 2: TGGTGGCTACGACGGGATT

Each binder was assayed against T1, RBFOX1 RRM (assay: EMSA; HiTS-Eq, 1 nM pool, 10 min; buffer printed only for the single-RNA assays: 10 mM Tris pH 7.5, 150 mM NaCl, 3.4 mM EDTA, 0.001% NP-40, 30 C). Conditions: tags: His6 N-terminal (pET28a); label: 5' 32P.
How it was run: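 Purified RbFox RRM, wild type or mutant, was incubated for 10 min in 50 µL with 1 nM of a 5′-radiolabelled RNA pool carrying 7 randomized nucleotides, whose flanks were annealed to DNA oligonucleotides, over a series of increasing protein concentrations. Unbound RNA was resolved on 8% native PAGE, cut out, reverse-transcribed, barcoded by PCR and sequenced on an Illumina HiSeq 2500. Relative association constants were derived from changes in read counts for each RNA species versus the control reaction and normalised to the cognate motif.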
For B1, the binding signal was 0.00177 KA relative to UGCAUGU.
With B2 the binding signal was 0.0041 KA relative to UGCAUGU.
In the case of B3, the binding signal is reported as 0.00198 KA relative to UGCAUGU.
With B4 the binding signal was 0.00661 KA relative to UGCAUGU.
With B5 the binding signal was 0.00817 KA relative to UGCAUGU.
With B6 the binding signal was 0.000958 KA relative to UGCAUGU.
With B7 the binding signal was 0.0106 KA relative to UGCAUGU.
For B8, the binding signal was 0.0128 KA relative to UGCAUGU.
For B9, the binding signal was 0.0149 KA relative to UGCAUGU.
With B10 the binding signal was 0.000883 KA relative to UGCAUGU.
With B11 the binding signal was 0.008 KA relative to UGCAUGU.
For B12, the binding signal was 0.0104 KA relative to UGCAUGU.
In the case of B13, the binding signal is reported as 0.0117 KA relative to UGCAUGU.
In the case of B14, the binding signal is reported as 0.01 KA relative to UGCAUGU.
B15 was tested, and the binding signal was 0.0209 KA relative to UGCAUGU.
For B16, the binding signal was 0.00927 KA relative to UGCAUGU.
With B17 the binding signal was 0.0125 KA relative to UGCAUGU.
B18 was tested, and the binding signal was 0.00677 KA relative to UGCAUGU.
B19 was tested, and the binding signal was 0.00839 KA relative to UGCAUGU.
For B20, the binding signal was 0.000741 KA relative to UGCAUGU.
B21 was tested, and the binding signal was 0.00256 KA relative to UGCAUGU.
With B22 the binding signal was 0.00571 KA relative to UGCAUGU.
With B23 the binding signal was 0.00768 KA relative to UGCAUGU.
For B24, the binding signal was 0.00166 KA relative to UGCAUGU.
With B25 the binding signal was 0.00241 KA relative to UGCAUGU.
With B26 the binding signal was 0.00481 KA relative to UGCAUGU.
With B27 the binding signal was 0.00787 KA relative to UGCAUGU.
For B28, the binding signal was 0.0155 KA relative to UGCAUGU.
With B29 the binding signal was 0.00241 KA relative to UGCAUGU.
B30 was tested, and the binding signal was 0.0192 KA relative to UGCAUGU.
For B31, the binding signal was 0.0271 KA relative to UGCAUGU.
